# Measured values: PubChem BioAssay AID1745845 (National Center for Advancing Translational Sciences (NCATS), 2022)
# “And” between values parts separate entries of the source, which are not always exact repeats. Equal values may be shown once. Screen size: about 360,000 compounds; about 2,600 (0.72%) were called active. The inconclusive results got no clear call from the source; some entries with a clear call stand among them for comparison. Calls follow the shape of the dose curve; as a rule, active = well fitted inhibition curve with a large enough effect; inconclusive = small, poorly fitted or top-dose-only effect; inactive = no such curve, though single readings can be large or run the other way. Potencies beside an inconclusive call are fits to weak or partial responses and may not hold up.
# Assay: Primary qHTS for Inhibitors of ATXN expression; also: nearly all actives have a fitted effect of over 55% in size
# Details: HEK-293 ATXN2-luciferase reporter, luminescence, 24 h; activity change, negative = inhibition: at 57 µM (top of the series)
# How it was run: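 ATXN2-luciferase reporter cells (luciferase flanked by upstream and downstream ATXN2 gene portions) were treated 24 h at 37 °C with compounds at up to 57 uM. SteadyGlo luminescence gave expression; GF-AFC fluorescence gave viability.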
# % is scaled to controls: 0 for no effect and ±100 for the full control effect; potency is read from the fitted curve at half-maximal effect; tags tell the direction and shape of the fitted curve.
Structure (SMILES),"activity change, negative = inhibition",Potency
COc1ccc(NC(C)=O)cc1S(=O)(=O)N1CCn2cccc2C1C (configuration not stated),inactive: 0.861%,
CC(=O)OC1(C(C)=O)CCC2C3CC(C(F)(F)F)C4=CC(=O)CCC4(C)C3CCC21C (configuration not stated),inactive: 8.06%,
CCOC(=O)c1c(-n2cccc2)sc2c1CCCC2=O,,"inconclusive: 10 µM [inhibitor, partial curve, poor fit]"
Cc1cccc(NC(=O)CSc2nc3ccc(NC(=O)c4ccccc4)cc3s2)c1,,"inconclusive: 39.8 µM [inhibitor, single point]"
CCc1ccc(-c2nc(CSCC(=O)NCc3ccco3)c(C)o2)cc1,,"inconclusive: 4.74 µM [inhibitor, partial curve, poor fit]"
CCC(=O)OCCNc1cc(Sc2nc3ccccc3s2)c2nonc2c1[N+](=O)[O-],,active: 6.31 µM
Cc1ccc(-c2ccc(/C=N/c3ncn[nH]3)o2)cc1Cl,,active: 15.8 µM
CC(C)N(Cc1nc(-c2ccc(Cl)cc2)no1)C(=O)c1ccc(C(C)(C)C)cc1,inactive: 7.29%,
O=C(NCCc1csc(-c2cccnc2)n1)c1cccc(Cl)c1,,"inconclusive: 31.6 µM [inhibitor, single point] and inconclusive: 28.2 µM [inhibitor, single point]"
O=C(c1ccc(COc2ccccc2Cl)o1)N1CCN(c2ccccc2)CC1,,"inconclusive: 21.2 µM [inhibitor, partial curve, poor fit]"
CCC(COC)NCc1cn(-c2ccc(OC)cc2)nc1-c1cccc(F)c1 (configuration not stated),,"inconclusive: 15.8 µM [inhibitor, partial curve, poor fit]"
Cc1sc(NC(=O)/C=C/c2ccc(C(C)C)cc2)c(C#N)c1C,inactive: -17.3%,
OCCCNCc1ccc(N(c2ccccc2)c2ccccc2)cc1,inconclusive: -77.2% [inhibitor],
CC(NC(=O)Nc1cccc([N+](=O)[O-])c1)(C(F)(F)F)C(F)(F)F,,"inconclusive: 28.2 µM [inhibitor, single point]"
C=CCC[C@@H](Cc1ccc(F)cc1)C(=O)OC[C@@H]1CCCN1C(=O)[C@@H](CC=C)CC(=O)N[C@@H](CO)Cc1ccccc1,,"inconclusive: 39.8 µM [inhibitor, single point]"
COc1ccc(C(CNc2ncnc3sc(C)c(C)c23)N(C)C)cc1 (configuration not stated),inconclusive: -47% [inhibitor],
Cc1ccc(Nc2c(-c3ccc(Br)o3)nc3ccccn23)cc1,inactive: 11.8%,
COc1ccc2[nH]c3c(NCCN(C(C)C)C(C)C)ncnc3c2c1,inactive: -25.1%,
O=C(/C=C/Nc1ccc(S(=O)(=O)Nc2ncccn2)cc1)c1ccc(Cl)c(Cl)c1,,"inconclusive: 37.7 µM [inhibitor, single point]"
Cc1cc(SCC(=O)N/N=C/c2ccc(O)c(O)c2O)c(C)cc1Br,,"inconclusive: 14.1 µM [inhibitor, partial curve, poor fit]"
NS(=O)(=O)c1ccc(Nc2nc(OCC3CCCCC3)c3[nH]cnc3n2)cc1,,"inconclusive: 27.3 µM [inhibitor, single point]"

Structure (SMILES),"activity change, negative = inhibition",Potency
CCCCc1nnc(SCCSc2nnc(CCCC)n2N)n1N,inactive: 4.74%,
COc1ccc2nc(Nc3nc(CSc4nnnn4-c4ccccc4)cc(=O)[nH]3)nc(C)c2c1,,"inconclusive: 3.16 µM [inhibitor, partial curve, poor fit]"
Cc1ccc(-c2nc(SCC(=O)Nc3cc(S(=O)(=O)N4CCCCC4)ccc3Cl)n[nH]2)cc1,inactive: -20.4%,
O=C(Nc1nc2cc3c(cc2s1)OCCO3)C1=COCCO1,,"inconclusive: 1.78 µM [inhibitor, full curve, poor fit]"
CCCCCN=Cc1c(C)[nH]n(-c2nc3ccccc3s2)c1=O,,active: 12.6 µM
O=C(Oc1ccccc1/C=C\C(=O)c1cc2ccccc2o1)c1ccccc1,,"inconclusive: 35.5 µM [inhibitor, partial curve, poor fit]"
COC(=O)C(NC(=O)CN1C(=O)c2ccccc2C1=O)c1ccc(O)c(OC)c1 (configuration not stated),inconclusive: -54.7% [inhibitor],
CC(C)(C)c1nc2ccccc2c2nnc(SCC(=O)Nc3nc4ccccc4s3)n12,,"inconclusive: 39.8 µM [inhibitor, single point]"
O=C(Nc1ccc(Br)cc1F)c1ccc2c(c1)N(Cc1ccccc1)C(=O)CS2=O (configuration not stated),,"inconclusive: 28.2 µM [inhibitor, partial curve, poor fit]"
CS(=O)(=O)Nc1cccc(-c2cc(NC=O)c3ncc(-c4ccc(F)cc4)n3c2)c1,,"inconclusive: 25.1 µM [inhibitor, single point]"
Cc1c(Cl)cccc1NS(=O)(=O)c1ccc(-c2cnc(C3CC3)o2)cc1,inactive: 0%,
Cn1nc(C(C)(C)C)cc1C(=O)NCc1ccc2c(c1)OCO2,,"inconclusive: 0.398 µM [inhibitor, partial curve, poor fit]"
C#Cc1ccc(NC(=O)C2(C)CCN2C(=O)C/C=C/c2ccccc2)cc1 (configuration not stated),inactive: 0%,
CN1CCN(S(=O)(=O)c2ccc(N(C)Cc3ccc(C(F)(F)F)cc3)c([N+](=O)[O-])c2)CC1,,"inconclusive: 15.8 µM [inhibitor, partial curve, poor fit]"
Cc1[nH]c(C=C2C(=O)Nc3ccc(S(=O)(=O)N(C)c4cccc(Cl)c4)cc32)c(C)c1C(=O)N1CCN(C)CC1,,"inconclusive: 27.3 µM [inhibitor, partial curve]"
O=C(CCl)Nc1ccccc1C(=O)NCc1ccccc1,,"inconclusive: 37.7 µM [inhibitor, single point]"
Cc1ccc(C)c(NC(=O)CSc2n[nH]c(-c3ccccn3)n2)c1,,active: 17.8 µM
CCN(CC)S(=O)(=O)c1cccc(C(=O)N/N=C/c2cccc(O)c2O)c1,,"inconclusive: 10 µM [inhibitor, partial curve, poor fit]"
CC(NCC(O)COCc1ccc(Cl)cc1)c1ccccc1 (configuration not stated),,"inconclusive: 10 µM [inhibitor, partial curve, poor fit]"
O=[N+]([O-])c1cc(Cc2ccccc2)cc(C=Nc2ccc(N3CCOCC3)cc2)c1O,inactive: 1.01%,
CCOC(=O)C1CCN(Cc2cc(=O)oc3c(C)c(C)ccc23)CC1,,"inconclusive: 12.6 µM [inhibitor, partial curve, poor fit]"
